Several values for one entry are separate records, joined by “and”; a condition that tells them apart may be missing. Identical values can stand only once. In all, about 310,000 compounds went through this assay and about 18,000 (5.8%) were called active. Inconclusive means that the source gave no clear call. Such entries were picked first, then a sample of the others. The call rests on the fitted dose curve; in most records, active means well fitted inhibition curve with a large enough effect; inconclusive means small, poorly fitted or top-dose-only effect, or another doubt; inactive means no such curve, though single readings can be large or run the other way. A potency beside an inconclusive call is a rough fit, not a confirmed value.
Assay: Primary qHTS for delayed death inhibitors of the malarial parasite plastid, 48 hour incubation
Settings: P. falciparum luciferase growth in erythrocytes; series mostly up to 28.7 µM
Summary of the method: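 Here the parasites carry a stable luciferase gene and grow inside erythrocytes in Albumax-based RPMI medium with compound for one erythrocytic cycle. Activity is scored as loss of luminescent signal.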
Potency means the concentration at half of the fitted maximal effect; tags describe the fitted curve by direction and shape.

| Compound | Potency |
| --- | --- |
| Cc1ccn2c(=O)nc(SCC(=O)N3CCC(Cc4ccccc4)CC3)nc2c1 | inconclusive: 0.329 µM [inhibitor, full curve, poor fit] |
| COc1cccc(CN(C)C(=O)c2cc(S(=O)(=O)NC3CCCCC3)ccc2C)c1OC | inconclusive: 18.5 µM [inhibitor, single point] |
| Cc1cc(NC(=O)C2CCCCC2)n(-c2nc3ccccc3[nH]2)n1 | active: 9.28 µM |
| CCCN1C(=O)C(O)(CC(=O)c2cccc(OC)c2)c2ccccc21 (configuration not stated) | inconclusive: 9.28 µM [inhibitor, partial curve] |
| CCOc1cc(S(=O)(=O)NCc2cccnc2)c(C)cc1C | inactive |
| COc1ccc(OCC(=O)Nc2ccc(N3CCN(C(=O)c4ccccc4C)CC3)cc2)cc1 | inconclusive: 11.7 µM [inhibitor, partial curve] |
| COc1cccc(NC(=S)N(CCN(C)C)C(C)c2ccco2)c1 (configuration not stated) | inactive |
| CCNc1nc(NC(C)C)nc(Oc2ccc(OCCOc3ccc(C)cc3)nn2)n1 | inconclusive: 10.4 µM [inhibitor, single point] |
| COc1cc(OC)cc(C(=O)Nc2cccc(N3CCCC3)c2)c1 | inconclusive: 9.28 µM [inhibitor, single point] |
| COc1cc(NC(=O)CCn2c(=S)oc3ccccc32)cc(OC)c1OC | inconclusive: 14.7 µM [inhibitor, partial curve] |
| CN1C(=O)C(=Cc2ccccc2OS(=O)(=O)c2ccccc2)C(=O)N(C)C1=O | inconclusive: 18.5 µM [inhibitor, partial curve, poor fit] |
| Cc1ccccc1Nc1nc(-c2sc(NC(=O)c3ccco3)nc2C)cs1 | active: 11.7 µM |
| CN(C(=S)Nc1ccc(F)cc1)C(c1ccccc1)c1ccccc1 | inconclusive: 18.5 µM [inhibitor, single point] |
| O=C(Nc1cccc(-c2cccc(Cl)c2)c1)C1CCN(Cc2ccccn2)CC1 | inconclusive: 13.1 µM [inhibitor, single point] |
| CN1CCC(Nc2ncc3ncnc(Nc4ccc(F)c(Cl)c4)c3n2)CC1 | active: 1.69 µM |
| CN(C(=O)Cn1nnc(-c2cccc(C(F)(F)F)c2)n1)C1CCCCC1 | inactive |
| O=C1C(c2[nH]c3ccccc3c2O)=Nc2ccccc21 | inconclusive: 9.53 µM [inhibitor, partial curve, poor fit] |
| CN(Cc1ccco1)c1ncnc2ccc(-c3ccc4c(c3)OCO4)cc12 | inconclusive: 7.38 µM [inhibitor, partial curve, poor fit] and inconclusive: 9.28 µM [inhibitor, single point] |
| CN(C(=O)COC(=O)C12CC3CC(CC(Cl)(C3)C1)C2)C1(C#N)CCCCC1 | inconclusive: 18.5 µM [inhibitor, single point] |
| Oc1ccc(Br)cc1-c1cc(-c2ccccc2F)[nH]n1 | active: 9.28 µM |
| O=C(Nc1cccc2c1CCCC2)c1ccc(Cl)c([N+](=O)[O-])c1 | inactive |

| Compound | Potency |
| --- | --- |
| C=CCN1C(=O)C(Cc2cccc(C)c2)SC1=Nc1ccc(C(=O)O)cc1 (configuration not stated) | inconclusive: 2.08 µM [inhibitor, single point] |
| CCOc1ccc(NC(=O)c2ccc(NC(=S)NC3CC3)cc2)cc1 | inconclusive: 1.04 µM [inhibitor, partial curve, poor fit] |
| CCC(C)(C)NC(=O)C(c1ccc(C)cc1)N(Cc1ccco1)C(=O)Cn1nnc2ccccc21 (configuration not stated) | inconclusive: 11.7 µM [inhibitor, single point] |
| Cc1ccc(Nc2nnc(SC/C(O)=C(\C#N)c3nc4ccccc4[nH]3)s2)c(C)c1 | inconclusive: 16.5 µM [inhibitor, single point] |
| COc1ccc(C)cc1NC(=O)C1CCCN(S(=O)(=O)c2cccc3nonc23)C1 (configuration not stated) | inconclusive: 9.28 µM [inhibitor, partial curve, poor fit] |
| Cc1cc(N2CCN(C(c3ccccc3)c3ccc(Cl)cc3)CC2)n2ncnc2n1 (configuration not stated) | inconclusive: 13.1 µM [inhibitor, partial curve] |
| CC(C)(C)NC(=O)COC(=O)c1cc(Cl)ccc1[N+](=O)[O-] | inconclusive: 16.5 µM [inhibitor, single point] |
| O=C(CCSc1ccc(Cl)cc1)Nc1cccnc1 | inactive |
| CCCCN1C(=S)NC[C@@H]1Cc1ccccc1 | inconclusive: 10.4 µM [inhibitor, single point] |
| N=c1n(CCc2ccccc2)c2ccccc2n1Cc1ccccc1F | active: 9.28 µM |
| CCCc1cc(Nc2cccc(OCC)c2)n2ncnc2n1 | inconclusive: 10.4 µM [inhibitor, single point] |
| CCN(CC)Cc1c(C(=O)N/N=C/c2ccccn2)nnn1-c1nonc1N | inactive |
| CCCn1c(N)c(C(=O)COC(=O)CNC(=O)c2ccccc2OCC)c(=O)[nH]c1=O | inactive |
| COCCN(C(=O)COC(=O)c1cc(C)oc1C)c1c(N)n(Cc2ccccc2)c(=O)[nH]c1=O | inconclusive: 14.7 µM [inhibitor, single point] |
| CCN(CC)S(=O)(=O)c1ccc2c(c1)nc(CCC(=O)OCC(=O)Nc1c(F)cccc1F)n2C | inconclusive: 2.33 µM [inhibitor, partial curve] |
| CCN(CC)S(=O)(=O)c1ccc2c(c1)NC(=O)C1CCCN21 (configuration not stated) | inconclusive: 18.5 µM [inhibitor, single point] |
| FC(F)Oc1ccc(NC(=S)NC2CCCCCCC2)cc1 | inconclusive: 18.5 µM [inhibitor, single point] |
| N=c1c(C(=O)NCC2CCCO2)cc2c(=O)n3ccccc3nc2n1Cc1ccccc1Cl (configuration not stated) | inconclusive: 18.5 µM [inhibitor, single point] |
| COc1ccc(NC(C)=O)cc1S(=O)(=O)NC(Cc1ccccc1)C(=O)NCc1ccccc1C (configuration not stated) | inconclusive: 1.85 µM [inhibitor, full curve] |
| CCCCc1nc2ccccc2c(=O)n1-c1ccc(O)cc1 | inconclusive: 18.5 µM [inhibitor, single point] |
| S=C(NCCc1ccccc1)N/N=C/C1CCCCC1 | inactive |

From PubChem BioAssay AID504832 (National Center for Advancing Translational Sciences (NCATS), 2011)
